# Measurements published in ChEMBL document CHEMBL5606458, “ASAP - ZIKV NS2B-NS3 protease fluorescence single point” (2024).
# The campaign covered roughly 2,700 compounds. About 160 (5.9%) showed an effect of 50% or more. This is one part of the list.
# Molecular target: Nonstructural protein 3 (Zika virus) (UniProt A0A024AXB9)
# [1] = PRVABC59, Concentration 15.0 uM, Number of replicates 1.0
# [2] = PRVABC59, Concentration 50.0 uM, Number of replicates 1.0
# UniProt A0A024AXB9, sequence (A0A024AXB9 as listed by the source): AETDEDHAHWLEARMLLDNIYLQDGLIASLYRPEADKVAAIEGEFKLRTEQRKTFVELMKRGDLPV
compound,measurement,setting,value
O=C(NCc1ccc(Cl)c(C(F)(F)F)c1)c1cc(Cl)ccc1NS(=O)(=O)c1ccc(Oc2ccccc2Cl)cc1,inhibition,[1],28.8%
O=C(NCc1ccccc1Oc1ccccc1)c1cc(Cl)ccc1NS(=O)(=O)c1ccc(Oc2ccccc2Cl)cc1,inhibition,[1],15.7%
O=Cc1ccc(N2CCC(C(=O)NCCc3ccccc3C(F)(F)F)CC2)cc1,inhibition,[2],25.8%
O=C(NCc1ccc(C(=O)N2CCCC2)cc1)c1cc(Cl)ccc1NS(=O)(=O)c1ccc(Oc2ccccc2Cl)cc1,inhibition,[1],25.2%
O=Cc1ccc(N2CCC(C(=O)NCCN3C(=O)c4ccccc4C3=O)CC2)cc1,inhibition,[2],28.2%
O=C(NCCc1c(F)cccc1Cl)c1cc(Cl)ccc1NS(=O)(=O)c1ccc(Oc2ccccc2Cl)cc1,inhibition,[1],17.9%
O=C(NCC1(c2ccccc2F)CCCC1)c1cc(Cl)ccc1NS(=O)(=O)c1ccc(Oc2ccccc2Cl)cc1,inhibition,[1],26.5%
O=C(NCCCc1nnc2ccccn12)c1cc(Cl)ccc1NS(=O)(=O)c1ccc(Oc2ccccc2Cl)cc1,inhibition,[1],14%
O=C(N[C@@H](Cn1ccnc1)c1ccccc1)c1cc(Cl)ccc1NS(=O)(=O)c1ccc(Oc2ccccc2Cl)cc1,inhibition,[1],14.8%
CCS(=O)(=O)N1CCN(C(=O)c2cc(Cl)ccc2NS(=O)(=O)c2ccc(Oc3ccccc3Cl)cc2)CC1,inhibition,[1],1.61%
O=C(NCCc1ccc(-c2ccccc2)cc1)c1cc(Cl)ccc1NS(=O)(=O)c1ccc(Oc2ccccc2Cl)cc1,inhibition,[1],1.08%
Cc1ccc([N+](=O)[O-])c(NC(=O)c2cc(Cl)ccc2NS(=O)(=O)c2ccc(Oc3ccccc3Cl)cc2)c1,inhibition,[1],24.1%
CCS(=O)(=O)CCN(C)C(=O)c1cc(Cl)ccc1NS(=O)(=O)c1ccc(Oc2ccccc2Cl)cc1,inhibition,[1],0.126%
O=C(Nc1ncc(C(F)(F)F)cc1Cl)c1cc(Cl)ccc1NS(=O)(=O)c1ccc(Oc2ccccc2Cl)cc1,inhibition,[1],21.3%
Cc1cc(CO)c2cccc(CC(=O)Nc3cc(C)[nH]n3)c2n1,inhibition,"PRVABC59, Concentration 49.95 uM, Number of replicates 2.0, Standard deviation 1.1960706203468343 %",0.209%
same,inhibition,"PRVABC59, Concentration 99.9 uM, Number of replicates 2.0, Standard deviation 0.6463869966486608 %",7.1%
O=C(NCc1ccc(Br)cc1F)c1cc(Cl)ccc1NS(=O)(=O)c1ccc(Oc2ccccc2Cl)cc1,inhibition,[1],34.5%
O=C(NC[C@H](O)c1ccc(O)c(O)c1)c1cc(Cl)ccc1NS(=O)(=O)c1ccc(Oc2ccccc2Cl)cc1,inhibition,[1],32.7%
O=C(Nc1cccc(Br)c1)c1cc(Cl)ccc1NS(=O)(=O)c1ccc(Oc2ccccc2Cl)cc1,inhibition,[1],43.8%
O=Cc1ccc(N2CCC(C(=O)Nc3c(F)cccc3Br)CC2)cc1,inhibition,[2],23.9%
O=Cc1ccc(N2CCC(C(=O)NCCSCc3ccccc3)CC2)cc1,inhibition,[2],24.5%
O=Cc1ccc(N2CCC(C(=O)N(Cc3ccccn3)Cc3ccccn3)CC2)cc1,inhibition,[2],-3.66%
CC(C)(C)OC(=O)[C@H]1CCCN1C(=O)c1cc(Cl)ccc1NS(=O)(=O)c1ccc(Oc2ccccc2Cl)cc1,inhibition,[1],9.29%
CNC(=O)c1cc(Br)cnc1NS(=O)(=O)c1ccc(Oc2ccccc2Cl)cc1,inhibition,"PRVABC59, Concentration 49.5 uM, Number of replicates 2.0, Standard deviation 0.2698167063214057 %",2.96%
same,inhibition,"PRVABC59, Concentration 99.01 uM, Number of replicates 2.0, Standard deviation 1.1934203843656208 %",1.55%
same,inhibition,"PRVABC59, Concentration 198.0 uM, Number of replicates 2.0, Standard deviation 2.3183489334478296 %",-1.65%
Cc1c(Br)cccc1NC(=O)c1cc(Cl)ccc1NS(=O)(=O)c1ccc(Oc2ccccc2Cl)cc1,inhibition,[1],40%
O=Cc1ccc(N2CCC(C(=O)Nc3c(Cl)c(F)nc(F)c3Cl)CC2)cc1,inhibition,[2],19%
CCOc1ccccc1CCNC(=O)C1CCN(c2ccc(C=O)cc2)CC1,inhibition,[2],11.7%
O=C(Nc1ccncc1Br)c1cc(Cl)ccc1NS(=O)(=O)c1ccc(Oc2ccccc2Cl)cc1,inhibition,[1],22.6%
O=Cc1ccc(N2CCC(C(=O)N3CCC(c4nc5ccccc5[nH]4)CC3)CC2)cc1,inhibition,[2],23.4%
CCN(Cc1cc(Br)ccc1F)C(=O)c1cc(Cl)ccc1NS(=O)(=O)c1ccc(Oc2ccccc2Cl)cc1,inhibition,[1],30.3%
CNC(=O)c1cc(Cl)ccc1NS(=O)(=O)c1ccc(Cn2cncn2)cc1,inhibition,"PRVABC59, Concentration 49.5 uM, Number of replicates 2.0, Standard deviation 1.2710076748523556 %",3.9%
same,inhibition,"PRVABC59, Concentration 99.01 uM, Number of replicates 2.0, Standard deviation 2.5202512228958676 %",4.47%
same,inhibition,"PRVABC59, Concentration 198.0 uM, Number of replicates 2.0, Standard deviation 0.07834930550781156 %",10.3%
CCc1ccc(-c2ccccc2C(=O)Nc2cnn(C)c2)c(F)c1,inhibition,"PRVABC59, Concentration 99.01 uM, Number of replicates 2.0, Standard deviation 6.546855425330618 %",-2.21%
same,inhibition,"PRVABC59, Concentration 198.0 uM, Number of replicates 2.0, Standard deviation 6.158335154751372 %",0.596%
CC(C)Nc1nc2ccc(C(=O)Nc3c[nH]c(C(N)=O)c3)cc2[nH]1,inhibition,"PRVABC59, Concentration 49.5 uM, Number of replicates 2.0, Standard deviation 2.468176515630838 %",2.75%
same,inhibition,"PRVABC59, Concentration 99.01 uM, Number of replicates 2.0, Standard deviation 1.3712092783760954 %",6.54%
same,inhibition,"PRVABC59, Concentration 198.0 uM, Number of replicates 2.0, Standard deviation 3.135895465303712 %",13%
O=C(NCC12CC3CC(CC(C3)C1)C2)c1cc(Cl)ccc1NS(=O)(=O)c1ccc(Oc2ccccc2Cl)cc1,inhibition,[1],23.8%
O=C(Nc1cc(Cl)cc([N+](=O)[O-])c1O)c1cc(Cl)ccc1NS(=O)(=O)c1ccc(Oc2ccccc2Cl)cc1,inhibition,[1],92.4%
O=C(Nc1cc(Cl)c(F)c(Cl)c1)c1cc(Cl)ccc1NS(=O)(=O)c1ccc(Oc2ccccc2Cl)cc1,inhibition,[1],24.3%
CC(C)(C)C1CCC(NC(=O)c2cc(Cl)ccc2NS(=O)(=O)c2ccc(Oc3ccccc3Cl)cc2)CC1 (centres undefined),inhibition,[1],28.9%
O=Cc1ccc(N2CCC(C(=O)N[C@H]3CCC[C@@H]3OCc3ccccc3)CC2)cc1,inhibition,[2],24.7%
CCn1ccnc(N[C@@H](Cc2c[nH]c3ccccc23)C(=O)O)c1=O,inhibition,"PRVABC59, Concentration 49.5 uM, Number of replicates 2.0, Standard deviation 1.5281595903710257 %",-4.52%
same,inhibition,"PRVABC59, Concentration 99.01 uM, Number of replicates 2.0, Standard deviation 1.7817962479896445 %",-2.25%
same,inhibition,"PRVABC59, Concentration 198.0 uM, Number of replicates 2.0, Standard deviation 2.4010917983245332 %",2.42%
CN(C(=O)c1cc(Cl)ccc1NS(=O)(=O)c1ccc(Oc2ccccc2Cl)cc1)C1CCN(C(=O)OC(C)(C)C)CC1,inhibition,[1],17%
CCCCCN(CCCCC)C(=O)C1CCN(c2ccc(C=O)cc2)CC1,inhibition,[2],26.1%
C[C@@H]1CCN(Cc2ccccc2)C[C@@H]1N(C)C(=O)C1CCN(c2ccc(C=O)cc2)CC1,inhibition,[2],28%
c1ccc2[nH]c(CN3CC[C@H](c4c[nH]c5ccccc45)C3)cc2c1,inhibition,"PRVABC59, Concentration 49.5 uM, Number of replicates 2.0, Standard deviation 2.2954481937210667 %",10%
same,inhibition,"PRVABC59, Concentration 99.01 uM, Number of replicates 2.0, Standard deviation 2.0493220623602406 %",9.75%
same,inhibition,"PRVABC59, Concentration 198.0 uM, Number of replicates 2.0, Standard deviation 2.000096566348245 %",8.07%
CC(C)Cn1cccc(C(=O)N[C@H]2CCCN(C)C2)c1=O,inhibition,"PRVABC59, Concentration 49.5 uM, Number of replicates 2.0, Standard deviation 0.18069500350899767 %",-4.57%
same,inhibition,"PRVABC59, Concentration 99.01 uM, Number of replicates 2.0, Standard deviation 0.9453197574457564 %",-7.61%
O=Cc1ccc(N2CCC(C(=O)N3CCC[C@H](c4nc5ccccc5o4)C3)CC2)cc1,inhibition,[2],21.4%
COc1cc(Br)ccc1NC(=O)C1CCN(c2ccc(C=O)cc2)CC1,inhibition,[2],23.3%
C[C@H](NC(=O)c1cc(Cl)ccc1NS(=O)(=O)c1ccc(Oc2ccccc2Cl)cc1)c1ccccc1-n1cccn1,inhibition,[1],23.9%
